# This is one part of the list.
# T1: UNK ZnF1-3 (human, UniProt Q9C0B0 31-174)
# T1 sequence: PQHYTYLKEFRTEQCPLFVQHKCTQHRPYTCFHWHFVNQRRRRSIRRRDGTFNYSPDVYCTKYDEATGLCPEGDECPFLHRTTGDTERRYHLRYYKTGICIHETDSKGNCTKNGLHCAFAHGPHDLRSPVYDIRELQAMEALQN
# B1: chr5:21408736:21408737:-_ENSMUSG00000042453_ENSMUST00000161356|mus_hu|mus_mus_mus_hu_False|48_58 (ssRNA)
# RNA: GGGAGUUCUACAGUCCGACGAUCGUUGACAGAGUUGUAGAUGGUGGCUUCAUGGAACUGGAAAGGGGAGCAGCCAAUGCUAUUGGAAGAGGAAGGUAGGCACUGGGUCUGUACGAGCUGCCAGGAAUCCGAUCUUGCAUCCUUCAACAGAGGAUUGAGCAUCA
# B2: chr10:127452298:127452299:+_ENSMUSG00000025395_ENSMUST00000026461|mus_mus|motif|central (ssRNA)
# RNA: GGGAGUUCUACAGUCCGACGAUCAAAGCUUGAGUAGCUCCGGCAGCUCCGCAGGAUCAAAUGGCUCCAUGAAGUAAAGAACGGGACCCGGACAGGACUGACACGAGAAUUGGCGGGAACAAGACAGGCCUCCAUCCCUGCGCGCAACAGAGGAUUGAGCAUCA
# B3: chr1:225977404:225977405:+_ENSG00000143742_ENST00000304786|hu_mus|motif|central (ssRNA)
# RNA: GGGAGUUCUACAGUCCGACGAUCUACUCCAAAAGAAACAUACCACUGCAGCAAAAGUUACAUUUUAUUUCAUCUUAGACACAAUCGGGAAAGACCUUUUCUUGUUAACUCUUCAACAAAUUACUGACAUGAAUUUACCAGAAACAACAGAGGAUUGAGCAUCA
# B4: chr1:46159212:46159213:+_ENSG00000159596_ENST00000372025|hu_mus|hu_hu_hu_mus_True|38_68 (ssRNA)
# RNA: GGGAGUUCUACAGUCCGACGAUCUCUGAUCCCUCCCAAGAAAGCUAGGAAACCGGCUCCAUAAGCCAUCUGAGUAAAAGCUAGGACGGGGAUAUAAGUUUUUGUCAUUACCAUGAGAAGUGGGGGAGCAGUAAAGGGGAUUAACAACAGAGGAUUGAGCAUCA
# B5: chr3:10015032:10015033:+_ENSMUSG00000027533_ENSMUST00000029046|mus_mus|mus_mus_mus_hu_True|68_88 (ssRNA)
# RNA: GGGAGUUCUACAGUCCGACGAUCGUUUUUACCAUCACAAGUGAUGAUACAGUCUGGCUUGGCCAUUGCAGCCAUCUUUCGCAAAGCUAUUCCCACUCCUAGCUCCUUCAUGUAUUCAUCAAAGCCUUUGCUGUCCACCAGGCGCAACAGAGGAUUGAGCAUCA
# B6: chr4:107939148:107939149:-_ENSMUSG00000034636_ENSMUST00000043616|mus_mus|FALSE|FALSE (ssRNA)
# RNA: GGGAGUUCUACAGUCCGACGAUCCAUCUGGUUACCUCUGAAAAUUCCCACAGUUCCAUCAUUCAGGAGACCGUGGAAUGCUAUAGUCUGAAGAAGCCGGUCAGCCACCUCCUGUGGGAACACCCCAGGCUCCUGCAGACACAGCAACAGAGGAUUGAGCAUCA
# B7: chr18:32579733:32579734:+_ENSMUSG00000024381_ENSMUST00000025239|mus_mus|FALSE|FALSE (ssRNA)
# RNA: GGGAGUUCUACAGUCCGACGAUCUUUAUGGAAGUUUUCCUCCAGACCCGCGAUGCUCUGGAACGUGUUGACAUAGAAACCUACACGGCUGUUCCACAGGGAUGGCAGCUCCUCCUGCAGAUCCACGUUCAUCUCCUCGAACACCAACAGAGGAUUGAGCAUCA
# B8: chr12:88041583:88041584:-_ENSMUSG00000021257_ENSMUST00000021682|mus_hu|FALSE|FALSE (ssRNA)
# RNA: GGGAGUUCUACAGUCCGACGAUCUAAACCUUUAUUUGGAAAAAGAGUUUAAAUAACAAUUUAAAACCCCAUUUCACUUUCAAAACAGAAACAAGAAAGCAAGGAAAAGAUAAUCUAUCAAGCAUCUGCCCUCUGCUGUGGUUACAACAGAGGAUUGAGCAUCA
# B9: chr17:64630434:64630435:-_ENSMUSG00000024083_ENSMUST00000172818|mus_hu|FALSE|FALSE (ssRNA)
# RNA: GGGAGUUCUACAGUCCGACGAUCUCUGUUUAUUGUUUAUGAUUUACACAGAAAAUGAUGGGCUGGGGUUAUAGAACAAUAAACCAACCAUUACAUUUAGACCUGGGCUUUUGAAAAACUUGCAUUCCAUUUUAACAAUUCGUACAACAGAGGAUUGAGCAUCA
# B10: 81895909_81896029_560_3pUTR_ENSMUSG00000031681_ENSMUST00000066091|mouse|control|control (ssRNA)
# RNA: GGGAGUUCUACAGUCCGACGAUCGGGCAGCUCAGGGCCUUCUCCAGCUCUUCCAUGGCCCCUUUCUUCUUCUUCAGUUUCUUCACCAAAGCGUCCACAGCUUUCUCUGCCCAUUUCUCUUCUUCAUCGCCCUGUUUCCACCCACAACAGAGGAUUGAGCAUCA
# B11: chr2:179515052:179515053:+_ENSMUSG00000000305_ENSMUST00000000314|mus_hu|mus_mus_mus_hu_False|58_58 (ssRNA)
# RNA: GGGAGUUCUACAGUCCGACGAUCGCUGUCCCAUGCAGUCACCGUGAACGCCACCUGCUCGGAGGGGACCUGCAGCUCCCUAGUGGCGAAGACUGUCCCAUCUGCCCCAACUUUGAAGUCCAUGCUGUUGGUCUCAUAUUGUGUCAACAGAGGAUUGAGCAUCA
# B12: chr3:33710417:33710418:+_ENSMUSG00000027677_ENSMUST00000099153|mus_mus|FALSE|FALSE (ssRNA)
# RNA: GGGAGUUCUACAGUCCGACGAUCAGAAGUCACAGUUCUACUCAUGGAAAUUAAGACAAAGCUGUCCAGGGAACAUGCAAACUAUGGACAUAUUAAUGUAAAAGAAACUAAUGAUGACAGAACUGAGAAUCAAUUUAAAUUCUCCAACAGAGGAUUGAGCAUCA
# B13: chr17:27085315:27085316:-_ENSG00000173065_ENST00000581407|hu_mus|motif|central (ssRNA)
# RNA: GGGAGUUCUACAGUCCGACGAUCACUAAACCUAGAAGGGCAAUGUGUGUUGCCUGAGGAGAGCGUCCCGGCUCCCGGUCGGUACCCUGGGUGCUGAAUAUGAAGACUUCGACUAUCUGUGGGAUCAGGGGCUCGGGUGCCAGGCAACAGAGGAUUGAGCAUCA
# B14: 6051737_6056632_1324_CDS_ENSMUSG00000015659_ENSMUST00000097432|mouse|control|control (ssRNA)
# RNA: GGGAGUUCUACAGUCCGACGAUCAGUCAGAGCCCGCUGGCUGUCGUGCUGCCGCCAGGUUUUAAAUGCUGCUCCCAUUAGGCCAUGAAUAAAAAGGACAUCGGCUUUAAUGGGCUGACUUGUCCGACACUGGGGAUGCAGCACCAACAGAGGAUUGAGCAUCA
# Target: T1, UNK ZnF1-3
# Assay: nsRBNS (natural sequence RNA bind-n-seq); RBNS binding buffer (assumed for nsRBNS): 25 mM Tris pH 7.5, 150 mM KCl, 3 mM MgCl2, 0.01% Triton X-100, 500 ug/ml BSA, 20 U/ml SUPERase-In, 4 C; UNK is unkempt and MSI1 is Musashi-1; names of the RNAs are library labels; protein concentration not given here; high values mean tight binding
row,Binder,binding signal
1,B1,1.58 enrichment R
2,B2,1.65 enrichment R
3,B3,0.854 enrichment R
4,B4,1.47 enrichment R
5,B5,0.787 enrichment R
6,B6,0.86 enrichment R
7,B7,0.584 enrichment R
8,B8,1.41 enrichment R
9,B9,1.13 enrichment R
10,B10,0.917 enrichment R
11,B11,0.778 enrichment R
12,B12,1.71 enrichment R
13,B13,0.828 enrichment R
14,B14,0.362 enrichment R

# From article PMC12136788
